# Experimental data taken from article PMC4336329 (PLoS ONE, 2015).
# Screen size: about 310,000 compounds; about 2,200 (0.71%) showed an effect of 50% or more. The effect is printed as a negative number. Some of the results follow.
# Molecular target: human ether-à-go-go-related gene (hERG) potassium channel (human, UniProt Q12809)
# Test: primary screen, population patch clamp on CHO cells stably expressing hERG
# Chain of human ether-à-go-go-related gene (hERG) potassium channel (Q12809 whole entry, looked up): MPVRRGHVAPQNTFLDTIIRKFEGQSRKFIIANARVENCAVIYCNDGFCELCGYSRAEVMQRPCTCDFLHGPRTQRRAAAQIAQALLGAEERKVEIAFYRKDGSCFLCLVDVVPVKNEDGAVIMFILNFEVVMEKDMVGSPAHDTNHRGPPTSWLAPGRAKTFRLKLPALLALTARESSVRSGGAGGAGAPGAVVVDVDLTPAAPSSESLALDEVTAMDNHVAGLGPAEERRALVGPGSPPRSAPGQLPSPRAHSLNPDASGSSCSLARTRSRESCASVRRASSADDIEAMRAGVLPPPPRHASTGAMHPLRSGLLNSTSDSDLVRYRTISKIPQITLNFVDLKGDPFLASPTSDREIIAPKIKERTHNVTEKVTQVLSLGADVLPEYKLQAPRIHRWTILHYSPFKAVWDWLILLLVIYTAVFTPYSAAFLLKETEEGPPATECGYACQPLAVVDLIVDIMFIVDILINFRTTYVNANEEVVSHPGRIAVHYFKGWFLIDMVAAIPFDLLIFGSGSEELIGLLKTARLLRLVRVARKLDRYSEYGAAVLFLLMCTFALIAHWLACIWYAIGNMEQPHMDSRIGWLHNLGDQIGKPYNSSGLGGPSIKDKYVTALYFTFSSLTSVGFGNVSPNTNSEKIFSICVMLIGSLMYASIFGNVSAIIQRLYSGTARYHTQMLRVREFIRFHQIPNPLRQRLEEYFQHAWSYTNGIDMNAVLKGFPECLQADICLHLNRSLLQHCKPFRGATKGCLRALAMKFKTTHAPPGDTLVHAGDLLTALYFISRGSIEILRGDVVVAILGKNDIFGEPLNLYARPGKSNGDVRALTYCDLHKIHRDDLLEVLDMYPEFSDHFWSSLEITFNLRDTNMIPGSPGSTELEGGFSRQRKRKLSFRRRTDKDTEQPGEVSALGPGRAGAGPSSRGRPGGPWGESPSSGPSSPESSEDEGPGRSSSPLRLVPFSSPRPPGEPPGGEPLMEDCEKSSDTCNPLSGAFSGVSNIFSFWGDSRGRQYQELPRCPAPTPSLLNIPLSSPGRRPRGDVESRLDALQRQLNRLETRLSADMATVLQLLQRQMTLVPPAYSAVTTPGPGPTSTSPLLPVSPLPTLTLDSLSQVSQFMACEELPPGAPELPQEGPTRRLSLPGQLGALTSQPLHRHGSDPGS
row,SMILES,"hERG current change (%, negative = inhibition) at 1uM [%]"
1,Cc1ccn2c(=O)nc(SCC(=O)NCc3ccc(F)cc3)nc2c1,23.1
2,CC1CCCCN1Cc1ccc(N)cc1 (stereo not drawn),16
3,Oc1ccccc1Oc1ncc(Br)c(Cl)n1,15.2
4,Cc1ccc2c(c1)CC1(CN2C)C(=O)NC(=O)N(CCc2ccccc2)C1=O (stereo not drawn),-4.16
5,COc1ccc(O[C@H]2C=C[C@@H](c3ccccc3)O[C@@H]2COC(=O)CC/C(C)=N/O[C@H](C)c2cn([C@@H]3COC[C@H]3O)nn2)cc1,1.7
6,CCOC(=O)N1CCC(NC(=O)C2CCCN(S(=O)(=O)c3cccc4nsnc34)C2)CC1 (stereo not drawn),3.51
7,CCCSc1nc(NCc2ccco2)c2c3c(sc2n1)COC(C)(CC)C3 (stereo not drawn),21.5
8,COC1CCCCC1Nc1cc(C)cc(C)c1 (stereo not drawn),8.22
9,CCn1c(C)nc2cc(C(=O)NNC(=S)Nc3ccccc3OC)ccc21,-4.31
10,Cc1cccc(OP(=O)(Oc2ccccc2)OC(c2ccccc2)C(F)(F)F)c1 (stereo not drawn),6.5
11,CC(=O)Nc1ccc(N2CC(C)(C)C2=O)cc1,1.36
12,CC(=O)c1sc(Nc2cccc3ccccc23)nc1C.Cl,11.5
13,Cc1cc(=O)[nH]c2c(C)cc(S(=O)(=O)N3CCCCC3)cc12,7.68
14,CCc1nn(CC(=O)NCCCN2CCN(CC)CC2)c(=O)c2cc3occc3n12,16.3
15,O=C(Nc1ccnn1C1CCN(Cc2ccc(C#CCCO)cc2)CC1)c1cccc(F)c1,-37.5
16,COc1ccccc1NC(=O)Cn1c(CN2CCCCC2)nc2ccccc2c1=O,6.37
17,CC(=O)c1[nH]c(C)c(C(C)=O)c1C,10.4
18,Cc1ccc(C)c(CSC2=NCCN2S(=O)(=O)c2ccccc2)c1,7.31
19,COc1ccc(NC2=NCC(=O)N2c2ccccc2F)c(OC)c1.Cl,6.07
20,CCOCCCNC(=O)Cc1cc(=O)[nH]c(=O)[nH]1,4.28
21,COc1cccc(C2NC(=O)c3ccccc3O2)c1OC (stereo not drawn),14.2
22,S=C(Nc1cccc(Cl)c1)N1CCN(Cc2ccccc2)CC1,3.98
23,CCC(C(=O)Nc1cccc(C(=O)O)c1)c1ccccc1 (stereo not drawn),7.48

row,SMILES,"hERG current change (%, negative = inhibition) at 1uM [%]"
1,C=CCN(C(=O)Cc1cccs1)c1nc(-c2ccc(S(C)(=O)=O)cc2)cs1,15.5
2,Cc1ccc(N2C(=O)NC(=O)/C(=C\C=C\c3ccco3)C2=O)cc1C,2.07
3,CC(Oc1ccc(Cl)cc1Cl)C(=O)NCc1ccncc1 (stereo not drawn),2.07
4,COc1ccccc1OCCNC(=O)c1ccccc1OCc1c(C)noc1C,15.3
5,C=CCc1c(C)nc2c(-c3ccccc3)cnn2c1N1CCOCC1,14.1
6,CCc1cccc2c(C(=S)N3CCCC3)c[nH]c12,7.51
7,O=c1c2ccccc2nc(/C=C/c2ccc([N+](=O)[O-])cc2)n1CCCO,-31
8,C[C@H]1CN=C(Nc2ccccc2)N1CCC1CCCC1,-0.228
9,Cc1cc2[nH]c(=O)c(=O)[nH]c2cc1S(=O)(=O)N1CCN(c2ccccc2)CC1,7.61
10,Cc1[nH]c2ccccc2c1-c1csc(NC(=O)CN2CCOCC2)n1,14.7
11,Cc1csc(NC(=O)Cc2c(F)cccc2Cl)n1,10.1
12,CCc1nn2c(=O)cc(COc3cccc(NC(=O)c4ccco4)c3)nc2s1,4.74
13,Cc1ccc(CNS(=O)(=O)CCNC(=O)c2ccc3c(c2)OCO3)cc1,3.72
14,COCCCNC(=S)NCCCNc1nc2cc3c(cc2cc1C#N)OCO3,10.2
15,O=C1CC(N2CCN(c3ccccc3Cl)CC2)C(=O)N1c1ccccc1 (stereo not drawn),5.01
16,CCC(C)(C(=O)NC1CCCC1)N(Cc1cccs1)C(=O)c1ccc2c(c1)OCO2 (stereo not drawn),2.22
17,CCN1CCN(C(=O)C2(NC(=O)Nc3ccccc3Cl)CCCCC2)CC1,0.0186
18,COc1ccc(CN(CCCN2CCOCC2)C(=O)Nc2ccccc2)cc1OC,3.31
19,COc1ccc(C(=O)Nc2nc(C)c(C(=O)N(C)C)s2)cc1OC,13
20,CC(C)(C)c1ccc(C(=O)NC(=S)N2CCOCC2)cc1,0.072
21,COc1cc(/C=N/NC(=O)CCNC(=O)c2ccccc2Cl)ccc1O,10.9
22,CCOc1ccc(C(=O)N(CC(=O)Nc2cccc(C)c2C)CC2CCCO2)cc1OC (stereo not drawn),2.66
23,Cc1cc([N+](=O)[O-])nn1CC(=O)N/N=C/c1ccccc1O,11.8

row,SMILES,"hERG current change (%, negative = inhibition) at 1uM [%]"
1,O=Cc1ccc(Sc2nnc(-c3ccccc3)o2)c([N+](=O)[O-])c1,11.2
2,CCOC(=O)c1oc2ccccc2c1N,9.68
3,Cc1cc(C)c2c(n1)nn1c(C3CC3)cc(C(F)(F)F)nc21,5.43
4,COc1ccc(C(=O)N2CCN(C(=O)c3ccco3)CC2)cc1,7.36
5,COc1cccc(C(=O)Nc2cc(C)ccc2NC(=O)COc2ccccc2)c1,12.2
6,O=C(O)CSc1cccc2cccnc12,12.9
7,CCC1(C)Cc2nc3[nH]c(=S)n(-c4ccccc4)c(=O)c3cc2CO1 (stereo not drawn),14.2
8,O=C(c1cccs1)n1nc(-c2ccccc2)nc1NCc1ccc(F)cc1,-24
9,COc1ccc(-c2csc(N(CCCN(C)C)C(=O)c3cccs3)n2)cc1.Cl,-51.6
10,Cc1nc2ncnn2c(C)c1CCC(=O)NC(C)CCc1ccco1 (stereo not drawn),6.81
11,O/N=C/c1ccc2ccccc2c1,2.15
12,CCC(C)Nc1nc2c(c(=O)n(C)c(=O)n2C)n1Cc1ccc(F)cc1 (stereo not drawn),8.54
13,CCn1c(SCc2nnc(-c3ccccc3)o2)nnc1-c1ccc(S(=O)(=O)N2CCCC2)cc1,-7.27
14,Cc1ccc(-n2nc(C(=O)O)c(C)c(C#N)c2=O)cc1Cl,12.2
15,CCN1C(=O)C(CC(=O)Nc2ccc(OC)cc2)N(CCCN2CCN(c3ccc(F)cc3)CC2)C1=S (stereo not drawn),-2.73
16,O=c1oc(-c2cccs2)nc2ccccc12,8.5
17,CC(=O)N(c1nc(CCl)cs1)c1c(C)cc(C)cc1C,11.7
18,Fc1ccc(C[n+]2c(-c3ccccc3)cc(-c3ccccc3)cc2-c2ccccc2)cc1.[O-][Cl+3]([O-])([O-])[O-],-27.1
19,CCCCCSc1nnc(-c2cc(Br)ccc2N)c(=O)[nH]1,5.76
20,Cc1ccc([N+](=O)[O-])cc1NC(=O)Cc1cccs1,4.01
21,N#CCCn1nc(-c2ccccc2)cc1Nc1ccccc1NC(=O)C(F)(F)F,-3.12
22,O=C(Nc1ccccc1N1CCOCC1)c1ccc(Cl)c(S(=O)(=O)NCc2ccco2)c1,-8.24
23,CCc1cc2c(=O)n(N)c(CCC(=O)O)nc2s1,-2.13

row,SMILES,"hERG current change (%, negative = inhibition) at 1uM [%]"
1,CCOCCOC(=O)COc1ccc2c(=O)c(Oc3ccc(OC)cc3)coc2c1,16.3
2,COc1cccc(CN2CCN(Cc3nc(C(C)C)cs3)CC2CCO)c1 (stereo not drawn),-20
3,O=C(/C=C/c1ccc2c(c1)OCO2)NCc1ccco1,11.3
4,CCc1ccc(-c2cc(C(=O)NN3CCN(C)CC3)c3ccccc3n2)cc1,-10.2
5,COc1ccc(C(=O)NCC(=O)OCc2ccc(Cl)cc2Cl)cc1OC,12.3
6,Cc1nonc1NC(=O)OCCN1CCOC1=O,11.7
7,CN(c1cccc(Cl)c1)S(=O)(=O)c1cccc(C(=O)NC2=NCCS2)c1,8.55
8,COc1ccc2c(CC(=O)OCC(=O)c3ccc(F)cc3)coc2c1,11.4
9,Cc1ccc(S(=O)(=O)N2CCOCC2)cc1NC(=O)CSc1nnc(NC2CC2)s1,5.08
10,CS(=O)(=O)N1CCN(c2ccc([N+](=O)[O-])cc2C(F)(F)F)CC1,-21.9
11,CCc1occc(=O)c1Oc1cc(NN2CCCCC2)c([N+](=O)[O-])cc1[N+](=O)[O-],4.71
12,COc1cccc(/C=C2/SC(=S)N(CC(=O)NNC(=O)c3ccccc3O)C2=O)c1,18.8
13,Cc1ccc(NCN2C(=O)C3C4C=CC(C4)C3C2=O)cc1 (stereo not drawn),6.97
14,O=S1(=O)CCC(S(=O)(=O)N2CCCCCC2)C1 (stereo not drawn),9.75
15,O=C(OCC(=O)N1CCOCC1)c1cccc(S(=O)(=O)N2CCCc3ccccc32)c1,0.941
16,O=C(Nc1cccc(Cl)c1N1CCOCC1)c1ccc(Br)o1,4.08
17,O=C(NCCNC(=O)c1cc(Cl)ccc1Cl)c1cnccn1,7.08
18,COc1ccc(S(=O)(=O)N(C)CC(=O)NCCC2=CCCCC2)cc1C,-4.9
19,CCCOc1ccc(C(=O)C(c2ccccc2)N2CCOCC2)cc1.Cl (stereo not drawn),10.8
20,CC(C)COc1ccc(-c2nn(-c3ccccc3)cc2CO)cc1,4.83
21,Clc1ccccc1OCCCCN1CCCC1,-1.01
